The full ranking holds about 33,000 sequences; the median of “E-score (-0.5 to 0.5)” is about -0.012, and the highest 2% start at about 0.27. Some of the results follow.

The target of this experiment is T1, Vhr1 (UniProt P40522).
T1 sequence: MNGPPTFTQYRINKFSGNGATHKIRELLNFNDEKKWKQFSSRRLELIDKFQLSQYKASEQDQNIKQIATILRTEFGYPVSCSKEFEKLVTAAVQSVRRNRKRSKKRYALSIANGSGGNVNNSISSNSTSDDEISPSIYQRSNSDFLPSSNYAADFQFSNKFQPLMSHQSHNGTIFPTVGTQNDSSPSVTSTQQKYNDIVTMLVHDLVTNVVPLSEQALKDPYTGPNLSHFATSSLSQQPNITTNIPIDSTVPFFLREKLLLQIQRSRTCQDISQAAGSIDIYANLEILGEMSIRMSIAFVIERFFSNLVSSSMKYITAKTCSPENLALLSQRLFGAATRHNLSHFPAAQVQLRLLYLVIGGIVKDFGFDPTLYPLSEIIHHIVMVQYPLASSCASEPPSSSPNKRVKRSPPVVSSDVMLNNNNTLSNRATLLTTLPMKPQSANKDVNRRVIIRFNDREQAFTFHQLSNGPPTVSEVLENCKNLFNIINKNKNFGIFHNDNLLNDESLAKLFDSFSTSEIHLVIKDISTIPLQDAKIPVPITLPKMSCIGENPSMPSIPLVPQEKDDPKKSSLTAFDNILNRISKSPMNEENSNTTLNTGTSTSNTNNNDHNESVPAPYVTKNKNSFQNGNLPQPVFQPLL
The experiment is described as follows: PBM E-score (8-mer binding enrichment) (E-score (-0.5 to 0.5)); higher = stronger / more preferred TF binding; most listed sequences are background and not binding sites. The note with it: protein concentration: 200 nM; construct: GST-full length. An outline of the steps:
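Universal all-10-mer Agilent arrays, double-stranded by primer extension on fresh or once-stripped slides, were probed with about 100-200 nM GST-tagged yeast transcription factors made by PURExpress. Fluorescent anti-GST detected bound protein, and masliner normalised the scans. E-scores from the Universal PBM Analysis Suite were given to each ungapped eight-base word pooled with its reverse complement.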
For AAGCCGAC, the “PBM E-score” value is -0.00302.

With AGGCCCAC, the “PBM E-score” value is -0.244.

Consider AACTTGGA, for which the “PBM E-score” value is -0.0693.

GGGATGAC: the “PBM E-score” value amounted to 0.323.

Turning to CGTCATAG, the “PBM E-score” value was -0.155.

As to GAACATAA, the “PBM E-score” value was -0.0256.

In the case of TCACCGCA, the “PBM E-score” value was determined as 0.0402.

Take CCAGCTGG: the “PBM E-score” value amounted to 0.301.

In the case of AACCGCGA, the “PBM E-score” value came to 0.278.

As to AGGGCGAC, the “PBM E-score” value was -0.0155.

Consider AAAATACC, for which the “PBM E-score” value was -0.139.

Consider AAGACCCC, for which the “PBM E-score” value is -0.116.

Take TAATGGAA: the “PBM E-score” value was -0.0617.

For the sequence CGAATCAC, the “PBM E-score” value is 0.331.

For the sequence ACTCACCA, the “PBM E-score” value came to 0.378.

Turning to ACGCTGAG, the “PBM E-score” value was 0.0319.

As for CTAAGAGC, the “PBM E-score” value is -0.169.

For the sequence AACCTCGA, the “PBM E-score” value is -0.0999.

GTGTTCTA: the “PBM E-score” value came out at 0.013.

Regarding ACGGCGTA, the “PBM E-score” value was -0.00472.

As for ATTTGAGA, the “PBM E-score” value is -0.0877.

Turning to AAGGAACC, the “PBM E-score” value is -0.128.

In the case of AAAAGTAT, the “PBM E-score” value was -0.0337.

Consider AATCAACC, for which the “PBM E-score” value was 0.166.

As for AGAAGTGC, the “PBM E-score” value is -0.189.

AGCAAGCT: the “PBM E-score” value was -0.105.

For GACTAAGA, the “PBM E-score” value turned out to be 0.0912.

As for AAGACGTA, the “PBM E-score” value is -0.15.

As to AAGCGGAT, the “PBM E-score” value is 0.0469.

As to ATGAGGTA, the “PBM E-score” value turned out to be 0.00309.

As for TCCGCACA, the “PBM E-score” value stood at 0.21.

CGTGGCGA: the “PBM E-score” value was -0.0547.

As for ATAAAAAA, the “PBM E-score” value is -0.139.

As to GGGTACTA, the “PBM E-score” value worked out at 0.214.

For AACGTTAG, the “PBM E-score” value was -0.137.

Turning to CACTCCTA, the “PBM E-score” value is -0.262.

Consider CTAAATTC, for which the “PBM E-score” value was -0.0442.

For CGGTTCAC, the “PBM E-score” value is -0.0323.

On to CTTCTAAA, for which the “PBM E-score” value is -0.306.

TAGACTGA: the “PBM E-score” value was -0.0371.

On to CGATCCAG, for which the “PBM E-score” value worked out at 0.132.

In the case of GTTCGGCA, the “PBM E-score” value was -0.0789.

ATCAGTTA: the “PBM E-score” value was 0.124.

CTTTTCTA: the “PBM E-score” value is -0.292.

For AGGTGGAT, the “PBM E-score” value was 0.087.

For the sequence ACGATGAT, the “PBM E-score” value was 0.105.

On to TATTCGGA, for which the “PBM E-score” value stood at 0.0415.

As for GAACCGGA, the “PBM E-score” value was determined as 0.0763.

For the sequence CGACCGAC, the “PBM E-score” value was found to be 0.0852.

On to TGGGCGAA, for which the “PBM E-score” value was 0.104.

Turning to AGGATGCA, the “PBM E-score” value was -0.0788.

As to ATCCGTTA, the “PBM E-score” value was 0.0444.

Consider AGTAATCA, for which the “PBM E-score” value stood at 0.303.

For the sequence CAAAGACA, the “PBM E-score” value is -0.0396.

On to ACGTCCTA, for which the “PBM E-score” value was -0.0914.

For the sequence GAACGCAC, the “PBM E-score” value worked out at 0.0695.

For the sequence GCTATCAC, the “PBM E-score” value is -0.09.

For GTACGCGA, the “PBM E-score” value turned out to be 0.0404.

Turning to TGGCCACA, the “PBM E-score” value turned out to be 0.179.

Turning to ACAAATTG, the “PBM E-score” value worked out at 0.00167.

Turning to ATATCCGG, the “PBM E-score” value stood at 0.173.

For the sequence CCTGGTTA, the “PBM E-score” value is -0.005.

Regarding TCTCAGCA, the “PBM E-score” value turned out to be 0.0768.

With CGATCGCA, the “PBM E-score” value came out at 0.178.

For the sequence AGGTCCGC, the “PBM E-score” value was -0.156.

As for AAAGCTAA, the “PBM E-score” value is -0.232.

On to GGACCTGA, for which the “PBM E-score” value was -0.0228.

For the sequence ATGCAGGG, the “PBM E-score” value was found to be 0.0235.

On to CCACTCGC, for which the “PBM E-score” value worked out at 0.0654.

Take CAGTCGGG: the “PBM E-score” value turned out to be 0.133.

With TACGCACA, the “PBM E-score” value is 0.0148.

CGCTGGGC: the “PBM E-score” value was 0.0647.

Turning to ACAAATAA, the “PBM E-score” value worked out at 0.0817.

Regarding CAAACATA, the “PBM E-score” value was 0.101.

For ATGTTCGG, the “PBM E-score” value turned out to be 0.144.

As to ACGTGATC, the “PBM E-score” value amounted to 0.0326.

With CTATACTA, the “PBM E-score” value is 0.14.

As for AGACCAAA, the “PBM E-score” value is -0.012.

For the sequence GCAATTAA, the “PBM E-score” value was -0.0295.

Take AAGGAGAG: the “PBM E-score” value is -0.332.

On to AATCTCGC, for which the “PBM E-score” value was 0.0379.

In the case of AAGCACAA, the “PBM E-score” value is -0.0279.

Consider CAGCATTA, for which the “PBM E-score” value was -0.0718.

Take CTAGCCAG: the “PBM E-score” value is -0.0891.

As for GGCTATAC, the “PBM E-score” value is -0.0266.

AACTTTTG: the “PBM E-score” value was -0.205.

The values above are taken from the supplement of paper PMC3334620.
